Data from PubChem BioAssay AID1508624 (National Center for Advancing Translational Sciences (NCATS), 2021).
The whole screen tested about 48,000 compounds, of which about 120 (0.25%) were called active. About 4% were inconclusive and are not listed. Calls follow the shape of the dose curve; as a rule, active = well fitted activation curve with a large enough effect; inconclusive = small, poorly fitted or top-dose-only effect, or another doubt; inactive = no such curve, though single readings can be large or run the other way. The list shows a part of the results.

Assay: Primary qHTS for Identification of Small Molecule Activators of Huntingtin-Antisense Promoter Activity; also: nearly all actives have a fitted effect of over 55% in size
Conditions: HEK293 HTT-AS promoter firefly luciferase reporter (activity 0% = vehicle and -100% = no light), 24 h; series mostly up to 57.5 µM; activity change, positive = activation: at the top concentration
Summary of the method: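 Quantitative HTS used concentration series of up to 57.5 uM final on HEK293 luciferase reporter cells, 24 h at 37 degrees C. Readout was Dual-Glo firefly luminescence.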

Activity change, positive = activation, inactive:
COc1cccc(-n2c(-c3ccco3)nc3c(cnn3-c3ccccc3C)c2=O)c1 -27.4%
Cn1cc(S(=O)(=O)N2CCCCCC2)cc1C(=O)Nc1ccccc1F -21.6%
COc1ccc(-c2nc(Cn3c(SCc4cccc(F)c4)nc4cccnc43)c(C)o2)cc1 -34.1%
COc1cccc(C(=O)NCC(c2ccc(N(C)C)cc2)N2CCc3ccccc32)c1OC (configuration not stated) -6.58%
COc1ccc2oc(-c3ccc(C)c(NC(=O)c4sc5ccccc5c4Cl)c3)nc2c1 -12.3%
CCN(CC)C(=O)c1sc2c(c1C)c(=O)n(-c1ccc(OC)cc1OC)c(=O)n2Cc1cc(C)ccc1C -30.5%
COc1cccc(-c2nn(C)c3sc(C(=O)NCc4ccc(C)cc4)cc23)c1 7.15%
CC(=O)N1c2ccc(S(=O)(=O)NCc3ccc(Cl)cc3)cc2CC1C (configuration not stated) -36.7%
CC(=O)Nc1ccccc1OCc1cc(=O)n2c(C)csc2n1 -4.09%
CCOC(=O)c1cc(S(=O)(=O)NCc2ccc(F)cc2)[nH]n1 -12.2%
Cc1ccc(-c2nc(C)c(CCNC(=O)C(=O)Nc3ccc(C)c(Cl)c3)s2)cc1 9.35%
CCC1(C)CC(=O)NC1=O (configuration not stated)
CCN(CCCNC(=O)CSc1cc(=O)n(C)c2cc(Cl)ccc12)c1ccccc1 -22%
Cc1cc(=O)n2nc(N3CCC(C(=O)NCc4ccccc4F)CC3)sc2n1 -5.58%
CN1CCN(CCNC(=O)c2cnn(-c3cccc(Cl)c3)c2C2CCN(C(=O)OC(C)(C)C)CC2)CC1 -17.8%
COc1ccc(CN(C)c2ccc(-c3nc(C)no3)cc2[N+](=O)[O-])cc1 -36.4%
Cc1ccc(NC(=O)CSc2ncc3c(n2)-c2ccccc2N(C)S3(=O)=O)c(Cl)c1 -38.7%
COc1ccc2nc(SCc3ncc(C)c(OC)c3C)[nH]c2c1 9.27%
CCC(CC)C(=O)Nc1cccc(-c2nc3ncccn3c2C)c1 9.3%
CCc1ccc(CNC(=O)Cn2nc(C)c3c(C)n(-c4ccc(C)cc4)nc3c2=O)cc1 -9.43%
CCC1CN(C(=O)N2CCC(C(=O)NCCCc3ccccc3)CC2)c2ccccc2O1 (configuration not stated) -36.1%
CN(C)c1ccc(CNC(=O)Cn2c(=O)oc3cc(S(=O)(=O)NCc4ccccc4)ccc32)cc1 -22.4%
CCCC12CN3CC(C)(CN(C1)C3c1cn(CC)c3ccccc13)C2=O (configuration not stated) 4.65%
CCN1CCN(c2cc(C)c3cc(NC(=O)c4cc(Br)ccc4Cl)ccc3n2)CC1 -18.7%
COCCCNC(=O)CSc1nc(-c2ccc(OC)cc2)[nH]c1-c1ccc(OC)cc1 -15.8%
COc1ccc2oc(=O)cc(CN3CCN(c4ccccc4OC)CC3)c2c1 -17.2%
CCOC(=O)c1c(C)[nH]c(CCC(=O)Nc2ccccc2OCC)c1C -10.3%
O=C(NCc1ccccc1Cl)c1ccc2nc(Cc3ccccc3)oc2c1 -11.8%
CCC(=O)N1c2ccccc2CC1C(=O)NCCN1CCN(c2cccc(Cl)c2)CC1 (configuration not stated) -20.2%
CC(=O)N1CCCc2cc(S(=O)(=O)N3CCC(C(=O)NCc4ccccc4Cl)CC3)ccc21 -16.1%
COc1ccc(CNC(=O)c2ccc(CS(=O)(=O)c3ccc(OC)cc3)o2)cc1 -20.5%
COc1ccc(C(=O)Nc2cc3cc(Cl)ccc3oc2=O)cc1OC -5.87%
Cc1nn(CCC(=O)N2CCN(c3ccccc3F)CC2)c(C)c1S(=O)(=O)N1CCCC1 -18%
CCOC(=O)c1cc2c(=O)n3ccccc3nc2n(CCCOC)c1=NC(=O)c1c(-c2ccccc2Cl)noc1C -18.3%
CCCS(=O)(=O)NCCc1csc2nc(-c3ccc(C)cc3)nn12 -27.3%
CCOc1ccc(NC(=O)C2CCCN(c3nn4cc(-c5ccc(OC)cc5)nc4s3)C2)cc1 (configuration not stated) -32.7%
Cc1nc2nc(C)c(NS(=O)(=O)c3ccc(F)cc3)c(=O)n2[nH]1 -4.3%
O=C(Cn1cnc(S(=O)(=O)N2CCCC2)c1)Nc1cccc(F)c1 -10.6%
Cc1ccccc1OCCCn1c(CCNC(=O)C2CCCCC2)nc2ccccc21 -21.8%
Cc1ccc(-n2ncc(C(=O)N3CCN(C4CCCCC4)CC3)c2C2CCN(C(=O)OC(C)(C)C)CC2)cc1C -2.56%
CN(C(=O)Cn1c(=O)n(CCC(=O)NCc2ccc3c(c2)OCO3)c(=O)c2sccc21)c1ccccc1 -9.18%
Cc1ccc(NC(=O)c2sc3nc4n(c(=O)c3c2C)CCCCC4)c(Br)c1 -3.59%
COCCN(Cc1ccco1)C(=O)c1cc2c(Cl)nc3ccc(C)cc3c2s1 -7.4%
CCN(CC)CCCNC(=O)CSc1nc2nc(C)c(Cc3ccccc3C)c(C)n2n1 10.1%
COc1ccc(NC(=O)Cn2nc(SC)c(S(=O)(=O)c3ccc(C)cc3)c2N)cc1OC -9.27%
COc1ccc(-n2nc(C(=O)NCCCOC(C)C)c3c4ccccc4n(C)c3c2=O)cc1 -0.12%
O=C(Nc1c(Cl)cccc1Cl)c1cccc2c1C(=O)N(C1CCCCC1)C2 2.36%
O=C(O)c1ccc2oc(=O)n(Cc3ccccc3)c2c1 1.94%
Fc1ccccc1N1CCN(c2ncnc3c2nc2n3CCCCC2)CC1 -31%
CCC(=O)N1CCc2cc(Br)cc(S(=O)(=O)CCC(=O)N(C)c3cccc(C)c3)c21 -4.53%
CCOc1cc(C2C(C(=O)Nc3ccccc3)=C(C)Nc3ncnn32)cc(Br)c1O (configuration not stated) -20%
Cc1cc2c(cc1S(=O)(=O)N(CCO)Cc1ccccc1)OCC(=O)N2 -8.81%
COc1ccc(NC(=O)CN2C(=O)CSc3ccc(S(=O)(=O)N(C)C)cc32)cc1OC 6.22%
CCNS(=O)(=O)c1cc(-c2nnc(Nc3cccc(C(F)(F)F)c3)c3ccccc23)ccc1C -42.3%
O=C(NC(Cc1cc(=O)[nH]c2ccccc12)C(=O)O)c1ccc(Cl)cc1 (configuration not stated)
CCc1cccc(CC)c1N(COC)C(=O)Cn1c(CC)nc2ccccc21 21.5%
Cc1ccc(C)c(NC(=O)CCS(=O)(=O)c2cccc3nsnc23)c1 -15.3%
Cc1ccc(NC(=O)Cn2c(CCC(=O)O)ccc2-c2cccs2)cc1Cl -19.8%
Cn1c(=O)oc2cc(S(=O)(=O)N3CCCC(C(=O)N4CCN(c5ccc(Cl)cc5)CC4)C3)ccc21 (configuration not stated) -33%
Cc1ccc(C)c(N2CCN(C(=O)C3CCN(S(=O)(=O)c4ccc5[nH]c(=O)oc5c4)CC3)CC2)c1 -31.2%
CCc1ccc2nc(N3CCN(C(=O)c4ccccc4)CC3)sc2c1 -12%
Cc1cccc(N2CCN(C(=O)CCCn3c(=O)[nH]c4ccsc4c3=O)CC2)c1C -27.3%
CCCCCCc1c(C)c2c(cc(C)c3c(C)c(C)oc32)oc1=O -28.3%
O=C1CC(c2nc3ccccc3n2CCC2CCCCC2)CN1c1ccccc1Cl (configuration not stated) -22.4%
Oc1c(C(c2ccccc2F)N2CCC3(CC2)OCCO3)sc2nc(-c3ccco3)nn12 (configuration not stated) -9.7%
CCCCN(C(=O)Nc1ccc(Cl)cc1)C1CCN(C(C)=O)CC1 1.52%
CC(=O)c1cccc(NC(=O)C2=CC(c3ccc(F)cc3)=NS(=O)(=O)N2C)c1 -22.8%
O=C(NC1CCCCC1)c1ccc(CSc2nc3ccncc3n2Cc2ccccc2)cc1 -3.88%
Cc1ccc2onc(CC(=O)N3CCN(c4ccc(Cl)cc4)CC3)c2c1 -13.9%
CCN(c1ccc(Cl)cc1)S(=O)(=O)c1nnc(NC(=O)c2ccco2)s1 -32.7%
COc1ccc(OC)c(CNC(=O)c2ccc(Sc3ccc(Cl)cc3)c(NC(C)=O)c2)c1 -27.2%
O=C(NCCc1ccccc1)c1ccc(Cn2c(=O)c3cccn3c3cccnc32)cc1 -17.7%
COc1ccc(Nc2nc3c(S(=O)(=O)c4ccccc4)nnn3c3ccc(Cl)cc23)c(OC)c1 11.9%
CC(C)(C)NC[C@H](O)COc1cccc2c1CCCC2=O -10.6%
CC(C)c1ccc(NC(=O)c2cn(C3CCCCC3)c(=O)c3c2c2ccccc2n3C)cc1 -15.9%
Cc1ccccc1NC(=O)N1CCc2cc(S(=O)(=O)N3CCC(C)CC3)ccc21 2.57%
CC(C)c1cc(C(C)C)c(CC(=O)NS(=O)(=O)Oc2c(C(C)C)cccc2C(C)C)c(C(C)C)c1 -9.75%
COc1ccc(-c2nc(C)c(CCNC(=O)c3ccc(F)c(F)c3)s2)cc1 4.44%
COc1ccccc1C1=NS(=O)(=O)N(C)C(C(=O)Nc2cc(OC)c(OC)c(OC)c2)=C1 -9.52%
CC(C)Cn1cc(NC(=O)NCc2ccccc2)c2ccccc2c1=O -16.5%
Cc1ccc2c(c1)c1c(c(=O)n(-c3cccc(Cl)c3)c(=O)n1CC(=O)c1ccc(Cl)cc1)n2C -7.56%
CCCCn1c(=N)c(S(=O)(=O)c2ccccc2)cc2c(=O)n3cccc(C)c3nc21 5.54%
Cc1nc2nc(SCC(=O)Nc3cccc(Cl)c3)nn2c(C)c1Cc1ccccc1 -31.4%
COC(=O)c1cccc(NC(=O)N(C)CCc2c(C)nn(C)c2C)c1 -0.826%
Cc1ccc(CNC(=O)c2cccc(N3CCCS3(=O)=O)c2)cc1 -22.5%
CN(C(=O)CSc1nc2ccc(NC(=O)c3ccccc3F)cc2s1)c1ccccc1 -39.6%
C[N+](C)(C)CCOC(N)=O -7.63%
CCCCn1cc(S(=O)(=O)c2ccc(OCC)cc2)c(=O)c2cc(OC)c(OC)cc21 2.54%
CCc1ccc(-n2nc3ccc(NC(=O)c4cc(Cl)c(OC)c(Cl)c4)cc3n2)cc1 -3.36%
CCOc1ccc(CNC(=O)Cn2nc(C)n3cccc3c2=O)cc1 -0.218%
Cc1ccc(NC(=O)CN(CCc2ccccc2)S(=O)(=O)c2ccccc2)c(C)c1 -25.4%
COc1ccc(CN2CCc3nc(Nc4ccccc4)ncc3C2)c(OC)c1OC -24.9%
Cc1ccc(CNC(=O)Cn2c(=O)n(Cc3ccccc3)c(=O)c3c2c2cc(C)ccc2n3C)cc1 -9.08%
COc1cc(N2C(=O)CSC23C(=O)N(C)c2ccccc23)cc(OC)c1OC (configuration not stated) -6.86%
CCOc1ccc(N2CC(C)Cn3c2nc2c3c(=O)n(CC(=O)O)c(=O)n2C)cc1 (configuration not stated) -0.964%
COCCN1Cc2cccc(C(=O)Nc3ccc(C)c(F)c3)c2C1=O -12%
Cc1cc(C)cc(NC(=O)C(=O)NCC(c2ccc3c(c2)OCO3)N2CCOCC2)c1 (configuration not stated) -2.99%
